Assay results: the supplement of paper PMC8728848
Some of the results follow.

Tests used:
Experiment in all cases: glycan array binding signal (z-score within array); higher = stronger binding
Details in all cases: glycan notation: IUPAC condensed, linker removed
[1] = target: Gal(b1-3)GlcNAc(b1-6)[Gal(b1-3)]GalNAc
How it was run: (§1)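 Negative Z-scores can be read as non-binding. The Z-score is calculated within each array and then averaged across arrays of one protein sequence at different concentrations or buffers and across linkers. Arrays, 3228 in all, were curated from the Consortium for Functional Glycomics database and kept only where the protein sequence was available.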

Gal(b1-3)GlcNAc6S = target: Gal(b1-3)GlcNAc6S
How it was run: as §1

[2] = target: Gal(b1-3)[Fuc(a1-4)]GlcNAc
How it was run: as §1

[3] = target: Gal(b1-3)[Fuc(a1-4)]GlcNAc(b1-2)Man
How it was run: as §1

[4] = target: Gal(b1-3)[Fuc(a1-4)]GlcNAc(b1-2)Man(a1-3)[Gal(b1-3)[Fuc(a1-4)]GlcNAc(b1-2)Man(a1-6)]Man(b1-4)GlcNAc(b1-4)[Fuc(a1-6)]GlcNAc
How it was run: as §1

[5] = target: Gal(b1-3)[Fuc(a1-4)]GlcNAc(b1-3)Gal(b1-3)[Fuc(a1-4)]GlcNAc
How it was run: as §1

[6] = target: Gal(b1-3)[Fuc(a1-4)]GlcNAc(b1-3)Gal(b1-4)[Fuc(a1-3)]GlcNAc
How it was run: as §1

[7] = target: Gal(b1-3)[Fuc(a1-4)]GlcNAc(b1-6)GalNAc
How it was run: as §1

[8] = target: Gal(b1-3)[GlcNAc(b1-6)]GalNAc
How it was run: as §1

[9] = target: Gal(b1-3)[Neu5Ac(a2-6)]GalNAc
How it was run: as §1

[10] = target: Gal(b1-3)[Neu5Ac(a2-6)]GlcNAc(b1-4)Gal(b1-4)Glc
How it was run: as §1

[11] = target: Gal(b1-3)[Neu5Ac(b2-6)]GalNAc
How it was run: as §1

Gal(b1-4)Gal = target: Gal(b1-4)Gal
How it was run: as §1

[12] = target: Gal(b1-4)GalNAc(a1-3)[Fuc(a1-2)]Gal(b1-4)GlcNAc
How it was run: as §1

[13] = target: Gal(b1-4)GalNAc(b1-3)[Fuc(a1-2)]Gal(b1-4)GlcNAc
How it was run: as §1

Gal(b1-4)Glc = target: Gal(b1-4)Glc
How it was run: as §1

Gal(b1-4)Glc6S = target: Gal(b1-4)Glc6S
How it was run: as §1

Gal(b1-4)GlcNAc = target: Gal(b1-4)GlcNAc
How it was run: as §1

[14] = target: Gal(b1-4)GlcNAc(a1-6)Gal(b1-4)GlcNAc
How it was run: as §1

Gal(b1-4)GlcNAc(b1-2)Man = target: Gal(b1-4)GlcNAc(b1-2)Man
How it was run: as §1

[15] = target: Gal(b1-4)GlcNAc(b1-2)Man(a1-3)Man(b1-4)GlcNAc(b1-4)GlcNAc
How it was run: as §1

[16] = target: Gal(b1-4)GlcNAc(b1-2)Man(a1-3)[Gal(b1-4)GlcNAc(b1-2)Man(a1-6)]Man(b1-4)GlcNAc(b1-4)GlcNAc
How it was run: as §1

[17] = target: Gal(b1-4)GlcNAc(b1-2)Man(a1-3)[Gal(b1-4)GlcNAc(b1-2)Man(a1-6)]Man(b1-4)GlcNAc(b1-4)[Fuc(a1-6)]GlcNAc
How it was run: as §1

[18] = target: Gal(b1-4)GlcNAc(b1-2)Man(a1-3)[Gal(b1-4)GlcNAc(b1-2)Man(a1-6)][Gal(b1-4)GlcNAc(b1-4)]Man(b1-4)GlcNAc(b1-4)[Fuc(a1-6)]GlcNAc
How it was run: as §1

[19] = target: Gal(b1-4)GlcNAc(b1-2)Man(a1-3)[Gal(b1-4)GlcNAc(b1-2)Man(a1-6)][GlcNAc(b1-4)]Man(b1-4)GlcNAc(b1-4)[Fuc(a1-6)]GlcNAc
How it was run: as §1

[20] = target: Gal(b1-4)GlcNAc(b1-2)Man(a1-3)[GlcNAc(b1-2)Man(a1-6)]Man(b1-4)GlcNAc(b1-4)GlcNAc
How it was run: as §1

[21] = target: Gal(b1-4)GlcNAc(b1-2)Man(a1-3)[GlcNAc(b1-4)][Gal(b1-4)GlcNAc(b1-2)Man(a1-6)]Man(b1-4)GlcNAc(b1-4)GlcNAc
How it was run: as §1

[22] = target: Gal(b1-4)GlcNAc(b1-2)Man(a1-3)[Man(a1-6)]Man(b1-4)GlcNAc(b1-4)GlcNAc
How it was run: as §1

[23] = target: Gal(b1-4)GlcNAc(b1-2)Man(a1-6)Man(b1-4)GlcNAc(b1-4)GlcNAc
How it was run: as §1

[24] = target: Gal(b1-4)GlcNAc(b1-2)Man(a1-6)[GlcNAc(b1-2)Man(a1-3)]Man(b1-4)GlcNAc(b1-4)GlcNAc
How it was run: as §1

[25] = target: Gal(b1-4)GlcNAc(b1-2)Man(a1-6)[Man(a1-3)]Man(b1-4)GlcNAc(b1-4)GlcNAc
How it was run: as §1

[26] = target: Gal(b1-4)GlcNAc(b1-2)[Gal(b1-4)GlcNAc(b1-4)]Man(a1-3)[Gal(b1-4)GlcNAc(b1-2)Man(a1-6)]Man(b1-4)GlcNAc(b1-4)GlcNAc
How it was run: as §1

[27] = target: Gal(b1-4)GlcNAc(b1-2)[Gal(b1-4)GlcNAc(b1-4)]Man(a1-3)[Gal(b1-4)GlcNAc(b1-2)[Gal(b1-4)GlcNAc(b1-6)]Man(a1-6)]Man(b1-4)GlcNAc(b1-4)GlcNAc
How it was run: as §1

[28] = target: Gal(b1-4)GlcNAc(b1-2)[Gal(b1-4)GlcNAc(b1-4)]Man(a1-3)[GlcNAc(b1-4)][Gal(b1-4)GlcNAc(b1-2)Man(a1-6)]Man(b1-4)GlcNAc(b1-4)GlcNAc
How it was run: as §1

[29] = target: Gal(b1-4)GlcNAc(b1-2)[Gal(b1-4)GlcNAc(b1-4)]Man(a1-3)[GlcNAc(b1-4)][Gal(b1-4)GlcNAc(b1-2)[Gal(b1-4)GlcNAc(b1-6)]Man(a1-6)]Man(b1-4)GlcNAc(b1-4)GlcNAc
How it was run: as §1

[30] = target: Gal(b1-4)GlcNAc(b1-2)[Gal(b1-4)GlcNAc(b1-6)]Man(a1-6)[Gal(b1-4)GlcNAc(b1-2)Man(a1-3)]Man(b1-4)GlcNAc(b1-4)GlcNAc
How it was run: as §1

[31] = target: Gal(b1-4)GlcNAc(b1-2)[Gal(b1-4)GlcNAc(b1-6)]Man(a1-6)[Gal(b1-4)GlcNAc(b1-2)Man(a1-3)]Man(b1-4)GlcNAc(b1-4)[Fuc(a1-6)]GlcNAc
How it was run: as §1

[32] = target: Gal(b1-4)GlcNAc(b1-2)[Gal(b1-4)GlcNAc(b1-6)]Man(a1-6)[GlcNAc(b1-4)][Gal(b1-4)GlcNAc(b1-2)Man(a1-3)]Man(b1-4)GlcNAc(b1-4)GlcNAc
How it was run: as §1

[33] = target: Gal(b1-4)GlcNAc(b1-2)[Gal(b1-4)GlcNAc(b1-6)]Man(a1-6)[GlcNAc(b1-4)][Gal(b1-4)GlcNAc(b1-2)[Gal(b1-4)GlcNAc(b1-4)]Man(a1-3)]Man(b1-4)GlcNAc(b1-4)[Fuc(a1-6)]GlcNAc
How it was run: as §1

[34] = target: Gal(b1-4)GlcNAc(b1-3)Gal(b1-3)GalNAc
How it was run: as §1

[35] = target: Gal(b1-4)GlcNAc(b1-3)Gal(b1-3)GlcNAc
How it was run: as §1

[36] = target: Gal(b1-4)GlcNAc(b1-3)Gal(b1-4)Glc
How it was run: as §1

[37] = target: Gal(b1-4)GlcNAc(b1-3)Gal(b1-4)GlcNAc
How it was run: as §1

[38] = target: Gal(b1-4)GlcNAc(b1-3)Gal(b1-4)GlcNAc(b1-2)Man(a1-3)[Gal(b1-4)GlcNAc(b1-3)Gal(b1-4)GlcNAc(b1-2)Man(a1-6)]Man(b1-4)GlcNAc(b1-4)GlcNAc
How it was run: as §1

[39] = target: Gal(b1-4)GlcNAc(b1-3)Gal(b1-4)GlcNAc(b1-2)Man(a1-3)[Gal(b1-4)GlcNAc(b1-3)Gal(b1-4)GlcNAc(b1-2)Man(a1-6)]Man(b1-4)GlcNAc(b1-4)[Fuc(a1-6)]GlcNAc
How it was run: as §1

B1: FimA-N3 (Actinomyces oris) (protein)
chain: MHHHHHHSSGVDLGTENLYFQSNAGLQGAQFQLYKAKNAYANTCSNEKEGAPIAINGQTTLTTDAQGAIDIKGLFISDSIDGADRDNQVNAMERCYVLVETKAPAGYVLPAGNGAATPVKVKAGEETTDN
With B1 as the binder, how does the “glycan array binding signal (z-score)” value [1] read?
Its value is -0.486.

And the “glycan array binding signal (z-score)” value (Gal(b1-3)GlcNAc6S)?
Its value is -0.047.

And the “glycan array binding signal (z-score)” value [2]?
Its value is -0.526.

What about the “glycan array binding signal (z-score)” value [3] of the same binder?
The value was -0.349.

What about the “glycan array binding signal (z-score)” value [4] of the same binder?
Its value is -0.106.

And the “glycan array binding signal (z-score)” value [5]?
The value was -0.452.

What about the “glycan array binding signal (z-score)” value [6] of the same binder?
The value was -0.325.

And the “glycan array binding signal (z-score)” value [7]?
The value was -0.118.

What about the “glycan array binding signal (z-score)” value [8] of the same binder?
The value was -0.271.

And the “glycan array binding signal (z-score)” value [9]?
The value was -0.069.

What about the “glycan array binding signal (z-score)” value [10] of the same binder?
Its value is -0.199.

And the “glycan array binding signal (z-score)” value [11]?
Its value is -0.563.

What about the “glycan array binding signal (z-score)” value (Gal(b1-4)Gal) of the same binder?
The value was -0.499.

What about the “glycan array binding signal (z-score)” value [12] of the same binder?
The value was -0.578.

And the “glycan array binding signal (z-score)” value [13]?
The value was -0.587.

What about the “glycan array binding signal (z-score)” value (Gal(b1-4)Glc) of the same binder?
Its value is -0.147.

And the “glycan array binding signal (z-score)” value (Gal(b1-4)Glc6S)?
The value was -0.058.

And the “glycan array binding signal (z-score)” value (Gal(b1-4)GlcNAc)?
Its value is -0.412.

And the “glycan array binding signal (z-score)” value [14]?
Its value is 0.279.

What about the “glycan array binding signal (z-score)” value (Gal(b1-4)GlcNAc(b1-2)Man) of the same binder?
The value was 0.072.

And the “glycan array binding signal (z-score)” value [15]?
Its value is 0.291.

And the “glycan array binding signal (z-score)” value [16]?
Its value is -0.47.

And the “glycan array binding signal (z-score)” value [17]?
Its value is 0.119.

And the “glycan array binding signal (z-score)” value [18]?
The value was -0.318.

And the “glycan array binding signal (z-score)” value [19]?
The value was -0.521.

What about the “glycan array binding signal (z-score)” value [20] of the same binder?
Its value is 0.194.

And the “glycan array binding signal (z-score)” value [21]?
Its value is -0.378.

What about the “glycan array binding signal (z-score)” value [22] of the same binder?
Its value is -0.153.

And the “glycan array binding signal (z-score)” value [23]?
The value was -0.27.

What about the “glycan array binding signal (z-score)” value [24] of the same binder?
Its value is -0.327.

What about the “glycan array binding signal (z-score)” value [25] of the same binder?
Its value is -0.087.

And the “glycan array binding signal (z-score)” value [26]?
Its value is -0.413.

What about the “glycan array binding signal (z-score)” value [27] of the same binder?
The value was -0.618.

And the “glycan array binding signal (z-score)” value [28]?
The value was -0.499.

And the “glycan array binding signal (z-score)” value [29]?
Its value is -0.59.

And the “glycan array binding signal (z-score)” value [30]?
The value was -0.416.

And the “glycan array binding signal (z-score)” value [31]?
Its value is -0.499.

What about the “glycan array binding signal (z-score)” value [32] of the same binder?
The value was -0.506.

And the “glycan array binding signal (z-score)” value [33]?
Its value is -0.61.

What about the “glycan array binding signal (z-score)” value [34] of the same binder?
Its value is 0.174.

And the “glycan array binding signal (z-score)” value [35]?
The value was -0.785.

And the “glycan array binding signal (z-score)” value [36]?
Its value is -0.274.

What about the “glycan array binding signal (z-score)” value [37] of the same binder?
The value was -0.175.

And the “glycan array binding signal (z-score)” value [38]?
Its value is -0.151.

What about the “glycan array binding signal (z-score)” value [39] of the same binder?
Its value is -0.021.
